{"source": "PubChem BioAssay AID624296", "about": "(National Center for Advancing Translational Sciences (NCATS), 2012)", "note": "Out of some 350,000 compounds screened, about 9,900 (2.8%) were called active. The inconclusive results got no clear call from the source; some entries with a clear call stand among them for comparison. The call rests on the fitted dose curve; in most records, active means well fitted activation curve with a large enough effect; inconclusive means small, poorly fitted or top-dose-only effect; inactive means no such curve, though single readings can be large or run the other way. Potencies of inconclusive entries are left out as doubtful fits. Potency means the concentration at half of the fitted maximal effect; tags describe the fitted curve by direction and shape.", "data": [{"experiment": "A quantitative high throughput screen for small molecules that induce DNA re-replication in MCF 10a normal breast cells; further: nearly all actives have a fitted effect of over 50% in size.", "conditions": "MCF 10A DNA re-replication, Hoechst nuclear intensity, 48 h; series mostly up to 46.1 µM", "values": [{"smiles": "CCN(CC)CCCN(Cc1cc2cc(OC)ccc2[nH]c1=O)C(=O)Nc1ccc(F)cc1", "Potency": "active: 2.91 µM"}, {"smiles": "CCOC(=O)c1cc(NC(=O)Nc2ccccn2)c(C)nc1C", "Potency": "inconclusive [activator, partial curve, poor fit]"}, {"smiles": "O=C(c1ccccc1)C1CCN(c2ncccc2[N+](=O)[O-])CC1", "Potency": "inconclusive [activator, partial curve, poor fit]"}, {"smiles": "CCCC(C)C(=O)Nc1nc(C)c(-c2csc(Nc3ccccc3OC)n2)s1", "note": "(configuration not stated)", "Potency": "active: 20.6 µM"}, {"smiles": "C#CCOCCOCCOCCNc1nc(N2CCN(C(=O)[C@H](CCCCN)n3cc([C@@H](N)CC(N)=O)nn3)CC2)nc(N2CCN(C(=O)[C@H](CCCCN)n3cc([C@@H](N)CC(N)=O)nn3)CC2)n1", "Potency": "inconclusive [activator, single point]"}, {"smiles": "O=C1NC[C@H](Cc2ccccc2)N(CC2CCN(CCC34CC5CC(CC(C5)C3)C4)CC2)C1=O", "Potency": "inactive"}, {"smiles": "CN(Cc1ccccc1F)C(=O)CCCNC(=O)c1ccc(Cl)cc1", "Potency": "inconclusive [activator, single point]"}, {"smiles": "CC(=O)CC(=O)Nc1ccc(C(N)=O)cc1", "Potency": "inactive"}, {"smiles": "Cc1[nH]c(=O)c(C#N)c(C)c1CCC(=O)NCc1cccc(C(F)(F)F)c1", "Potency": "inactive"}, {"smiles": "Cc1cc(SCC(=O)c2ccc(O)c(O)c2)n2nc(C)c(-c3ccccc3)c2n1", "Potency": "inconclusive [activator, partial curve]"}, {"smiles": "CCOC(=O)c1ccc(-c2c(-c3ccccc3OC)sc3cc4c(cc23)OCO4)cc1F", "Potency": "inconclusive [activator, partial curve, poor fit]"}, {"smiles": "COc1ccccc1NC(=O)COc1ccc(C(=O)OCC(=O)N2CCCC2=O)cc1OC", "Potency": "inconclusive [activator, single point]"}, {"smiles": "CC1CCCN(C(=O)C(=O)c2cn(CC(=O)N3CCCCCC3)c3ccccc23)C1", "note": "(configuration not stated)", "Potency": "inactive"}, {"smiles": "CCn1c(=O)cc(SCC(=O)N2CCN(Cc3ccc4c(c3)OCO4)CC2)c2ccccc21", "Potency": "inconclusive [activator, partial curve, poor fit]"}, {"smiles": "CC(Oc1ccccc1)C(=O)N1CCN(c2ccc(N3CCCCCC3)nn2)CC1", "note": "(configuration not stated)", "Potency": "inconclusive [activator, single point]"}, {"smiles": "CC(C)(C)Sc1ccc2nc3c(n2c1)CCCC3", "Potency": "inconclusive [activator, single point]"}, {"smiles": "CC(C)n1cnnc1SCC(=O)Nc1ccc(N2CCCCC2)cc1", "Potency": "inconclusive [activator, full curve, poor fit]"}]}]}
